Test results published in a compilation of properties of binary mixtures (doi:10.1016/j.molliq.2013.09.012).
Some of these densities may be calculated back from excess volumes.

Assay: xn = mol fraction of the nth substance listed
Details: 298.15 K, 101 kPa

Row | SMILES | mass density (x2 = 0) | mass density (x2 = 0.1) | mass density (x2 = 0.1449) | mass density (x2 = 0.4008) | mass density (x2 = 0.4992) | mass density (x2 = 0.6009) | mass density (x2 = 0.7007) | mass density (x2 = 0.8983) | mass density (x1 = 1) | mass density (x1 = 0.1949) | mass density (x1 = 0.2959) | mass density (x1 = 0.3803) | mass density (x1 = 0.5991) | mass density (x1 = 0.7005) | mass density (x1 = 0.8066)
1 | CCCCCC[n+]1ccn(C)c1.F[B-](F)(F)F + CC(C)(C)O | 1145.2 kg/m3 | 1129.3 kg/m3 | 1121.5 kg/m3 | 1066.3 kg/m3 | 1038.7 kg/m3 | 1005 kg/m3 | 965.3 kg/m3 | 858.5 kg/m3 |  |  |  |  |  |  | 
2 | CC(C)(C)O + CCCCCC[n+]1ccn(C)c1.F[B-](F)(F)F |  |  |  |  |  |  |  |  | 781.1 kg/m3 |  |  |  |  |  | 
3 | CCCN + CCCCCC[n+]1ccn(C)c1.F[B-](F)(F)F |  |  |  |  |  |  |  |  | 711 kg/m3 | 1114.6 kg/m3 | 1094.8 kg/m3 | 1075.2 kg/m3 | 1005 kg/m3 | 958.3 kg/m3 | 894.4 kg/m3
